Experimental data: PubChem BioAssay AID652104 (National Center for Advancing Translational Sciences (NCATS), 2013)
Out of some 410,000 compounds screened, about 7,200 (1.8%) were called active. The shares of active, inactive and inconclusive entries below differ from those in the screen. The call rests on the fitted dose curve; in most records, active means well fitted activation curve with a large enough effect; inconclusive means small, poorly fitted or top-dose-only effect, or another doubt; inactive means no such curve, though single readings can be large or run the other way. Where the call is inconclusive, the potency comes from a doubtful curve fit.

Assay: qHTS of TDP-43 Inhibitors; further: nearly all actives have a fitted effect of over 50% in size; on growth rescue (activation): % of control where 0% means no effect
Details: TDP-43 expressing yeast growth rescue, BacTiter-Glo, 24 h; growth rescue (activation): at 46.1 µM (top of the series) unless noted
Method in brief: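 Luminescence from BacTiter-Glo reports growth of TDP-43-expressing yeast after 24 hr at 30 deg C with compound. Cells were raffinose-pregrown to mid-log, then seeded in galactose medium at OD600=0.02.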
Potency means the concentration at half of the fitted maximal effect; tags describe the fitted curve by direction and shape.

Potency, inconclusive:
Cc1ccc(C(C)C)c(OCCCN2C(=O)NC(C)(C)C2=O)c1 11.2 µM [activator, single point]
CCn1ccc2cc(S(=O)(=O)N3CCCN(C(=O)NCC(C)C)CC3)ccc21 39.8 µM [activator, partial curve, poor fit]
COc1ccc(-c2[nH]c(-c3cc(OC)c4c(c3)OCO4)nc2-c2ccccc2)cc1 3.98 µM [activator, full curve, poor fit]
Cc1ccn(CC(=O)N/N=C/c2cc([N+](=O)[O-])ccc2O)n1 20 µM [activator, single point]
Cc1cccc(C2CC(c3ccccc3)=NN2c2ccc(S(N)(=O)=O)cc2)c1 (stereo not drawn) 31.6 µM [activator, single point]
CCOC(=O)c1cc(C)sc1NC(=O)CSC1=NCCS1 12.6 µM [activator, partial curve]
COCc1nnc(NC(=O)CCc2ccccc2)s1 6.31 µM [activator, single point]
C(=Cc1cnnc2ccccc12)c1ccccc1 17.8 µM [activator, single point]
Cc1ccc(C(=O)NCc2ccc3c(c2)OCO3)c(C)c1 31.6 µM [activator, single point]
COC(=O)c1sccc1NC(=O)Nc1ccc(F)cc1 2.82 µM [activator, partial curve]
Cc1ccc(C(C)C)c2c1C(c1ccc3c(c1)OCO3)CC(=O)O2 (stereo not drawn) 7.94 µM [activator, partial curve]
O=c1[nH]cnc2scc(-c3ccc(F)cc3)c12 11.2 µM [activator, partial curve, poor fit]
O=C(O)c1ccc(-n2nc(C(F)(F)F)cc2-c2cccs2)cc1 35.5 µM [activator, single point]
COc1ccccc1CNC(=O)c1ccc(CS(=O)(=O)c2ccccc2C)o1 35.5 µM [activator, partial curve, poor fit]
CN1C[C@@H]2[C@@H]3C(=O)N(Cc4ccccc4)C(=O)[C@@H]3[C@](C)(C1=O)N2C(=O)c1ccc(C(F)(F)F)cc1 3.55 µM [activator, partial curve]
Cc1cccc(N2CCN(C(=O)CSCc3ccc(F)cc3)CC2)c1C 31.6 µM [activator, partial curve, poor fit]
CCOc1cc(-c2noc(CCCC(N)=O)n2)cc(Br)c1OC 20 µM [activator, partial curve]
O=C(CNC(=O)c1ccccc1Br)NCCSc1ccc(Br)cc1 14.1 µM [activator, partial curve]
Cc1nn(C)cc1/C=N/NC(=S)Nc1ccccc1 3.16 µM [activator, single point]
O=C(O)c1ccc(CCCc2ccccc2)cc1 22.4 µM [activator, single point]
COc1ccc(OCc2nc(N)nc(Nc3ccc(C)cc3)n2)cc1 3.16 µM [activator, partial curve]
O=C(c1ccc(N2CCCC2=O)cc1)N1CCN(c2ccc(C(F)(F)F)cc2[N+](=O)[O-])CC1 22.4 µM [activator, partial curve, poor fit]
COc1ccc(-c2c(-c3ccsc3)oc(=O)c3cc(OC)c(OC)cc23)cn1 20 µM [activator, single point]
Cc1c(C(=O)N2CCC3(CC2)CC(=O)c2ccccc2O3)cccc1[N+](=O)[O-] 17.8 µM [activator, partial curve]
O=S(=O)(NCC1CCCO1)c1ccc(Cl)c2ccccc12 (stereo not drawn) 22.4 µM [activator, partial curve]
OC(c1ccccc1)c1nc(/C=C/c2ccc(C(F)(F)F)cc2)cs1 (stereo not drawn) 1.12 µM [activator, full curve, poor fit]
COc1ccc(NC(=O)c2cc(-c3ccco3)nc3ccccc23)cc1S(=O)(=O)N1CCOCC1 22.4 µM [activator, single point]
Cc1ccc(C(=O)c2cc(C)sc2N)cc1 3.16 µM [activator, partial curve]
O=C(Nc1ccccc1)C1=C[C@@H](c2ccccc2)C[C@@H](OCc2ccc(CO)cc2)O1 4.47 µM [activator, partial curve]
Cc1cc2nc(-c3cccc(Cl)c3)c(Cc3cccc(Cl)c3)n2c(C)c1Br 35.5 µM [activator, single point]
CCn1c(SCCOc2ccccc2F)nc2ccccc21 11.2 µM [activator, partial curve]

Potency, active:
O=C(CSCC(=O)N1CCCCC1)Nc1nc(-c2cccs2)cs1 31.6 µM
CN(C(=O)c1ccc(COc2ccccc2Cl)o1)c1ccccc1 10 µM
CC(=O)Nc1cccc(Oc2nc(NC(C)C)nc3cc(-c4ccccc4)sc23)c1 25.1 µM
Cn1cc(Cl)c(/C(N)=N/OC(=O)c2ccccc2C(F)(F)F)n1 20 µM

Growth rescue (activation), inactive:
CCNC(=O)Cn1c(-c2cccs2)cc2ccccc21 23.6%
CCOc1ccc(CNS(=O)(=O)c2c(C(=O)N3CCCCCC3)c(C)n(C)c2C)cc1OC 10.1%
CCOC(=O)CN1C(=O)N2C[C@H]3CON(C)[C@H]3C[C@H]2c2ccccc21 17.7%
Cc1ccc(CNC(=O)Cc2coc3cc(C)cc(C)c23)cc1 6.8%
CCOC(=O)c1ccc(NC(=O)C2CCCN(c3ccc(Sc4ccc(C)cc4)nn3)C2)cc1 (stereo not drawn) 24.1%
COc1ccc(N2C(=O)c3ccccc3NC2c2ccc(OC)c(CSc3ccccn3)c2)cc1 (stereo not drawn) -11.3%
O=C(Nc1ccc(Oc2ccccc2)cc1)c1ccc(Cn2c(=O)[nH]c3ccsc3c2=O)cc1 -3.54%
Cc1cccnc1Nc1nc(-c2ccc(O)c(O)c2)cs1 22%
